Assay results as given in the supplement of paper PMC4967469.
The IC50 comes from the fitted curve, where viability falls to half of the control; a limit (>, <) means that the fit lies beyond the doses tested. AUC, from the same fit, is the share of area under the viability curve across the 256-fold dose range; values near 1 show little effect.

Compound: COc1ccc(C2=N[C@@H](c3ccc(Cl)cc3)[C@@H](c3ccc(Cl)cc3)N2C(=O)N2CCNC(=O)C2)c(OC(C)C)c1 [Nutlin-3a]
Assay: Viability of human cancer cell lines after 72 h of drug (GDSC screen)
Procedure: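 Human cancer cell lines in 384-well plates, medium with 10% serum, drug for 72 h over a 256-fold dose range (nine 2-fold or five 4-fold steps up to the top dose). Adherent lines were fixed and stained with the nucleic acid dye Syto60, suspension lines read with resazurin; signal relative to control wells, capped at 0 and 100%. One two-parameter sigmoid per drug and line, fitted in a mixed model over all curves with the slope shared within a line.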

Cell Line | AUC | IC50
KYSE-410 (oesophagus, adherent, top dose 8 µM) | 0.96 | > 8 µM
KYSE-450 (oesophagus, adherent, top dose 8 µM) | 0.988 | > 8 µM
KYSE-510 (oesophagus, adherent, top dose 8 µM) | 0.992 | > 8 µM
KYSE-520 (oesophagus, adherent, top dose 8 µM) | 0.973 | > 8 µM
L-363 (myeloma, suspension, top dose 8 µM) | 0.965 | > 8 µM
L-428 (Hodgkin lymphoma, suspension, top dose 8 µM) | 0.99 | > 8 µM
L-540 (Hodgkin lymphoma, suspension, top dose 8 µM) | 0.797 | 3.31 µM
L-1236 (Hodgkin lymphoma, suspension, top dose 8 µM) | 0.992 | > 8 µM
LAMA-84 (chronic myeloid leukaemia, suspension, top dose 8 µM) | 0.919 | > 8 µM
LAN-6 (neuroblastoma, adherent, top dose 8 µM) | 0.872 | > 8 µM
LB373-MEL-D (melanoma, adherent, top dose 8 µM) | 0.923 | > 8 µM
LB647-SCLC (small cell lung carcinoma, semi-adherent, top dose 8 µM) | 0.985 | > 8 µM
LB771-HNC (head and neck, adherent, top dose 8 µM) | 0.978 | > 8 µM
LB831-BLC (bladder, adherent, top dose 8 µM) | 0.987 | > 8 µM
LB996-RCC (kidney, adherent, top dose 4 µM) | 0.87 | > 4 µM
LB1047-RCC (kidney, adherent, top dose 8 µM) | 0.983 | > 8 µM
LB2518-MEL (melanoma, adherent, top dose 8 µM) | 0.896 | > 8 µM
LC4-1 (lymphoblastic leukaemia, suspension, top dose 8 µM) | 0.893 | > 8 µM
LC-1-sq (lung squamous cell carcinoma, adherent, top dose 8 µM) | 0.932 | > 8 µM
LC-2-ad (lung adenocarcinoma, adherent, top dose 4 µM) | 0.984 | > 4 µM
LCLC-97TM1 (large cell lung carcinoma, adherent, top dose 8 µM) | 0.979 | > 8 µM
LCLC-103H (large cell lung carcinoma, adherent, top dose 4 µM) | 0.943 | > 4 µM
LK-2 (lung squamous cell carcinoma, adherent, top dose 8 µM) | 0.989 | > 8 µM
LN-18 (glioma, adherent, top dose 8 µM) | 0.994 | > 8 µM
LN-405 (glioma, adherent, top dose 8 µM) | 0.969 | > 8 µM
LNZTA3WT4 (glioma, adherent, top dose 8 µM) | 0.988 | > 8 µM
LOU-NH91 (lung squamous cell carcinoma, adherent, top dose 8 µM) | 0.984 | > 8 µM

Cell Line | AUC | IC50
LOUCY (T-cell lymphoblastic leukaemia, suspension, top dose 8 µM) | 0.948 | > 8 µM
LOXIMVI (melanoma, semi-adherent, top dose 8 µM) | 0.806 | 3.54 µM
LP-1 (myeloma, suspension, top dose 8 µM) | 0.981 | > 8 µM
LS-180 (large intestine, adherent, top dose 8 µM) | 0.856 | 7.94 µM
LS-411N (large intestine, adherent, top dose 8 µM) | 0.981 | > 8 µM
LS-513 (large intestine, adherent, top dose 8 µM) | 0.972 | > 8 µM
LS-1034 (large intestine, adherent, top dose 8 µM) | 0.975 | > 8 µM
LU-65 (large cell lung carcinoma, suspension, top dose 8 µM) | 0.987 | > 8 µM
LU-134-A (small cell lung carcinoma, suspension, top dose 8 µM) | 0.987 | > 8 µM
LU-135 (small cell lung carcinoma, suspension, top dose 8 µM) | 0.992 | > 8 µM
LU-139 (small cell lung carcinoma, suspension, top dose 8 µM) | 0.946 | > 8 µM
LU-165 (small cell lung carcinoma, suspension, top dose 8 µM) | 0.982 | > 8 µM
LXF-289 (lung adenocarcinoma, adherent, top dose 8 µM) | 0.97 | > 8 µM
LoVo (large intestine, adherent, top dose 8 µM) | 0.856 | 6.53 µM
M059J (glioma, adherent, top dose 8 µM) | 0.976 | > 8 µM
MC116 (B-cell lymphoma, suspension, top dose 8 µM) | 0.999 | > 8 µM
MC-CAR (haematopoietic neoplasm, suspension, top dose 8 µM) | 0.916 | > 8 µM
MC-IXC (neuroblastoma, adherent, top dose 8 µM) | 0.981 | > 8 µM
MDA-MB-157 (breast, adherent, top dose 8 µM) | 0.942 | > 8 µM
MDA-MB-231 (breast, adherent, top dose 8 µM) | 0.979 | > 8 µM
MDA-MB-330 (breast, adherent, top dose 8 µM) | 0.947 | > 8 µM
MDA-MB-361 (breast, adherent, top dose 8 µM) | 0.976 | > 8 µM
MDA-MB-415 (breast, adherent, top dose 8 µM) | 0.983 | > 8 µM
MDA-MB-436 (breast, adherent, top dose 8 µM) | 0.961 | > 8 µM
MDA-MB-453 (breast, adherent, top dose 8 µM) | 0.985 | > 8 µM
MDST8 (large intestine, adherent, top dose 8 µM) | 0.893 | > 8 µM
ME-1 (acute myeloid leukaemia, suspension, top dose 8 µM) | 0.984 | > 8 µM

Cell Line | AUC | IC50
ME-180 (cervix, adherent, top dose 8 µM) | 0.969 | > 8 µM
MEG-01 (chronic myeloid leukaemia, suspension, top dose 8 µM) | 0.976 | > 8 µM
MEL-HO (melanoma, adherent, top dose 8 µM) | 0.844 | 5.82 µM
MEL-JUSO (melanoma, adherent, top dose 8 µM) | 0.752 | 2.92 µM
MES-SA (uterus, adherent, top dose 8 µM) | 0.914 | > 8 µM
MFE-280 (endometrium, adherent, top dose 8 µM) | 0.982 | > 8 µM
MFE-296 (endometrium, adherent, top dose 8 µM) | 0.864 | 7.83 µM
MFE-319 (endometrium, adherent, top dose 4 µM) | 0.975 | > 4 µM
MFH-ino (soft tissue, adherent, top dose 8 µM) | 0.743 | 2.86 µM
MFM-223 (breast, adherent, top dose 8 µM) | 0.989 | > 8 µM
MG-63 (osteosarcoma, adherent, top dose 8 µM) | 0.984 | > 8 µM
MHH-CALL-2 (B-cell leukaemia, suspension, top dose 8 µM) | 0.987 | > 8 µM
MHH-ES-1 (Ewing sarcoma, adherent, top dose 8 µM) | 0.983 | > 8 µM
MHH-NB-11 (neuroblastoma, adherent, top dose 8 µM) | 0.787 | 3.86 µM
MHH-PREB-1 (B-cell leukaemia, suspension, top dose 8 µM) | 0.97 | > 8 µM
MIA-PaCa-2 (pancreas, adherent, top dose 8 µM) | 0.981 | > 8 µM
MKN1 (stomach, adherent, top dose 4 µM) | 0.982 | > 4 µM
MKN7 (stomach, adherent, top dose 8 µM) | 0.98 | > 8 µM
MKN28 (stomach, adherent, top dose 8 µM) | 0.983 | > 8 µM
ML-2 (acute myeloid leukaemia, suspension, top dose 8 µM) | 0.892 | 7.63 µM
MLMA (hairy cell leukaemia, semi-adherent, top dose 8 µM) | 0.977 | > 8 µM
MM1S (myeloma, suspension, top dose 8 µM) | 0.806 | 3.83 µM
MMAC-SF (melanoma, adherent, top dose 4 µM) | 0.921 | > 4 µM
MN-60 (B-cell leukaemia, suspension, top dose 8 µM) | 0.966 | > 8 µM
MOG-G-CCM (glioma, adherent, top dose 8 µM) | 0.982 | > 8 µM
MOG-G-UVW (glioma, adherent, top dose 8 µM) | 0.933 | > 8 µM
